# Results: the supplement of paper PMC10338343
# ± gives the standard deviation. Only a part is listed here, and it is no random draw.
# System: MIWI (PIWIL1) piRISC loaded with piRNA #1 (30 nt)
# Test: pre-steady-state target cleavage rate (min^-1); MIWI and MILI are mouse PIWI proteins and EfPiwi is from a freshwater sponge; tags in brackets are library labels; higher = faster piRNA-guided slicing of the target
# Conditions: guide: piRNA #1 5'p-UGAGGUAGUAGGUUGUAUAGUAUCCAGAGG; auxiliary factor: 500 nM mouse GTSF1
# In short: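 In Cleave-'n-Seq, a transcribed, DNA-blocked target RNA library (0.1 nM) was combined with 1 nM active affinity-purified piRISC bearing one synthetic guide, with or without 500 nM GTSF1 partner protein. Reactions ran in HEPES–potassium acetate buffer at 33 °C for 0–8 or 0–960 min. Uncleaved targets were sequenced and normalised to depth and to weakly complementary targets, three trials were pooled, and k3 was capped at 0.0001 min^-1. The pre-steady-state cleavage rate was obtained by fitting a burst-and-steady-state model.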
row,Sequence,pre-steady-state target cleavage rate
1,GGAGACCAUACUAUACAACCUGCUACCUCA,0.46 ± 0.027
2,GGUCUGGACACUAUACAACCUACUACCUCA,1.77 ± 0.1
3,GGUCUGGAUACUAUACAACCACUACCUCA,0.00445 ± 0.0024
4,GGUCUGGUUACUAUACAACCUACUACCUGA,0.493 ± 0.076
5,GGAGUGGAUACUAUACACCCUACUACCUCA,1.7 ± 0.098
6,GGAGACCAUACUAUACAACCUACAAGCUCA,0.138 ± 0.026
7,GGUCUCGAUACUAUAGAACCUACUACCUCA,1.04 ± 0.071
8,CCUCUGGAUACUAAACAAGCUACUACCUCA,1.4 ± 0.077
9,GGAGUGGAUACUUUUCAACCUACUACCUCA,1.17 ± 0.11
10,GCUGUGGAUACUAUACAACCUACUACGUCA,0.534 ± 0.064
11,GGAGACCUAACUAUACAACCAACUACCACA,0.0132 ± 0.0044
12,GGAGACCAUACUAUACAACCUAGUUCCUCA,0.229 ± 0.028
13,CCUCUGGAUACUUUACAACCUAGUACCUCA,0.238 ± 0.035
14,CCUCUGGAUUGUAUACAACCUACUACCUCA,1.5 ± 0.096
15,GGAGACCUAUGAUUACAAGGAACUACCUCA,< 0.0001
16,GGAGACCUAACUAUACAACCUACAACGUCA,0.143 ± 0.042
17,GGAGACCUAUCUAUCAACCUACUACCUCA,0.0324 ± 0.0055
18,GGAGACGAUUGAAUACAACCUACUACCUCA,0.00304 ± 0.003
19,GGUCUCGAUUCUAUACAACCUACUACCUCA,1.74 ± 0.1
20,CCUGUCGAUACUAUACAACCUACUACCUCA,1.57 ± 0.11

row,Sequence,pre-steady-state target cleavage rate
1,GGAGACGAUAGUAUACAACCUACUACCUGA,0.6 ± 0.091
2,CCUCUGGAUACUAUACAACCUACAUCCUCA,0.523 ± 0.038
3,GGAGACGAUAGUAUUCAACCUACUACCUCA,0.619 ± 0.069
4,GGAGAGGGAUACUAUACAACCUACUACCUCA,1.31 ± 0.063
5,GCUCUCGAUACUAUACAACCUACUACCUCA,1.86 ± 0.11
6,GGAGACCAUACUAUACAACCUACUACCCCA,0.915 ± 0.081
7,GCUCUGGAUACUAUUCAACCUAGUACCUCA,0.363 ± 0.051
8,GGAGUGGAUACUUACAACCUACUACCUCA,0.879 ± 0.096
9,GGUCUGGAUACAAUACAACCUACUACCUGA,0.664 ± 0.093
10,GCUCUGCAUACUAUACAACGUACUACCUCA,1.21 ± 0.066
11,CGUGUGGAUACUAUACAACCUACUACCUCA,0.694 ± 0.033
12,CCUCUGGAUACUAUACAUCCUACUAGCUCA,0.82 ± 0.072
13,GCUCUGGAUACUAUACAACCUCACUACCUCA,0.00381 ± 0.0028
14,GCUCUGGAUACUUUACAACCUACUACCACA,0.971 ± 0.06
15,GGAGACCUUACUAUACUACCUACUACGUCA,0.291 ± 0.027
16,GGAGACGAUACUAUUCAACCUUCUACCUCA,0.561 ± 0.031
17,GGACUGCAUACUAUACAACGUACUACCUCA,0.811 ± 0.078
18,GGAGACCUAACUAUAGAACCUACAACCUCA,0.00664 ± 0.0031
19,GGAGACCAUUCUAUACAACCUACUAGCUCA,0.64 ± 0.064
20,GGAGUGGUUACUAUACAUCCUACUACCUCA,1.43 ± 0.099
